Measured values published in article PMC3170326, “AKAP12 and AKAP5 form higher-order hetero-oligomers” (Journal of Molecular Signaling, 2011).
Results are given in words; binding and its absence hold for the method and conditions named. For part of these data: Tags and fused reporters may be left off the sequences shown.

Sequences of proteins named here, by UniProt entry; tags and fusion partners are left off.
UniProt Q13283: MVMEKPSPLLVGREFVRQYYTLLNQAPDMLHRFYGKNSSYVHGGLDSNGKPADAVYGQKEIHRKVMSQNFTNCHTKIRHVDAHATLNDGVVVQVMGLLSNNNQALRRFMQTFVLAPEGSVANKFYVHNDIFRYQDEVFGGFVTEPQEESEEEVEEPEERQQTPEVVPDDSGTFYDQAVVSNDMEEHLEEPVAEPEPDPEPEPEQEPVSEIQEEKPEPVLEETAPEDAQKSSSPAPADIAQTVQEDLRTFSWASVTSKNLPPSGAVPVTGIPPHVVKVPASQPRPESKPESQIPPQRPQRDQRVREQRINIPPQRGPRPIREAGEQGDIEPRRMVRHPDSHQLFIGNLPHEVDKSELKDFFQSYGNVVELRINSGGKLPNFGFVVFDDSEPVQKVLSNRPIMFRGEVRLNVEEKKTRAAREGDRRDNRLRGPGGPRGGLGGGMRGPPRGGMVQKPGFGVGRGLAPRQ

Columns and labels:
Experiment in all cases: pull-down; AKAP12 bait on beads (HA-AKAP12 on agarose beads; His-AKAP12 (1-840) or (840-1782) cross-linked to CNBr-activated Sepharose 4B), incubated with purified His-AKAP5 or GST-G3BP1 in PBS, 1% Triton X-100, 1 mg/ml BSA, 4°C 1 h (for 840-1782 also 37°C 1 h and 4°C 17 h); immunoblot with anti-AKAP5 or anti-GST; both purified
[1] = molecular target: HA-tagged AKAP12 (full-length), purified, immobilized to agarose beads (human) (UniProt Q02952)
[2] = molecular target: T1, His-tagged AKAP12 (1-840) (human) (UniProt Q02952)
T1 sequence: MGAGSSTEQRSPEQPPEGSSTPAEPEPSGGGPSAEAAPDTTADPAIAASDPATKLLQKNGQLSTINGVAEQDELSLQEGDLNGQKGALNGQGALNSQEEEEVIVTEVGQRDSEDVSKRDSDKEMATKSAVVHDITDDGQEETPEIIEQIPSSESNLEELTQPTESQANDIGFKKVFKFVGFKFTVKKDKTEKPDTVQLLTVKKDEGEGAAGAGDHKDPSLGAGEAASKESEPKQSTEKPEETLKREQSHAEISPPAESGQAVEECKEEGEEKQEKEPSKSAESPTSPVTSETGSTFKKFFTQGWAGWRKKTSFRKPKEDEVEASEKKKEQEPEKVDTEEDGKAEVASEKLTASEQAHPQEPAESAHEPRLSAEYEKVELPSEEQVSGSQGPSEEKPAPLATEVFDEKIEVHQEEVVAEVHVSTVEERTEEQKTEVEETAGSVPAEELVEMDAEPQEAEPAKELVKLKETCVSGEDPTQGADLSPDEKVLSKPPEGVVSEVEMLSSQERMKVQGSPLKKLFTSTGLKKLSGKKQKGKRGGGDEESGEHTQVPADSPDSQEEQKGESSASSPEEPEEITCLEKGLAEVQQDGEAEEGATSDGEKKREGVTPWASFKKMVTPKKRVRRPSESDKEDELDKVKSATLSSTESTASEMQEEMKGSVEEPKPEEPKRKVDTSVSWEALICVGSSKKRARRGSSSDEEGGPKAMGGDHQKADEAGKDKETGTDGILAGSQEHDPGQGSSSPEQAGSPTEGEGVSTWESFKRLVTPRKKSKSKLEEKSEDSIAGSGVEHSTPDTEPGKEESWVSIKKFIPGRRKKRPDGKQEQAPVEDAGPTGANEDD

[3] = molecular target: T2, His-tagged AKAP12 (840-1782) (human) (UniProt Q02952)
T2 sequence: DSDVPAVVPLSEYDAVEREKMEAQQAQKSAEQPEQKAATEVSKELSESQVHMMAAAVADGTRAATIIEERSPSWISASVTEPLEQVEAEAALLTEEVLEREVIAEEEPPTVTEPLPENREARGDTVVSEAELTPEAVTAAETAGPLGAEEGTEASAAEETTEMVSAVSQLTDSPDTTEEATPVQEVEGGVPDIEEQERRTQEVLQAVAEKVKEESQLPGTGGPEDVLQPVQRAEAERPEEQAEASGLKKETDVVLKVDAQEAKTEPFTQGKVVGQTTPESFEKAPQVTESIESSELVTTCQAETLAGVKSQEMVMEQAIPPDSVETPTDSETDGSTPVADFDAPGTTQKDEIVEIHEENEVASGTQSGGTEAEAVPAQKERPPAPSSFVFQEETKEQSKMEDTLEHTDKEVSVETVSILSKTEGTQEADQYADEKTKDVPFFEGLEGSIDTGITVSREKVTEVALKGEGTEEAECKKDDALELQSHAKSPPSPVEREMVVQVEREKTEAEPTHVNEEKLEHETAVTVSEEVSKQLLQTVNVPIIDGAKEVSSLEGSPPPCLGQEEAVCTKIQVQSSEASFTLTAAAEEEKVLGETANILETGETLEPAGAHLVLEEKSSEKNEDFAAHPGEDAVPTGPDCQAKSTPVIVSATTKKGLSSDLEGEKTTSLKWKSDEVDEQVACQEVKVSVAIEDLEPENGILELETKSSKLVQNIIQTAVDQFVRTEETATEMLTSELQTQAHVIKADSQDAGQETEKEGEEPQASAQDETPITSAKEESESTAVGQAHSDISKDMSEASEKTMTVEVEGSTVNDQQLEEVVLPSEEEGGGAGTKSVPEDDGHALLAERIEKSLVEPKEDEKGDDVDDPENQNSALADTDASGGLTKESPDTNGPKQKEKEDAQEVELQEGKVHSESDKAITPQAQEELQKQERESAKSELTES

Measured: binding

GST-tagged G3BP1 (from UniProt Q13283 1-466)
no binding: all assays above
